The supplement of paper PMC8728848
Some of the results follow.

How the values were obtained:
Test in all cases: glycan array binding signal (z-score within array); higher = stronger binding
Conditions in all cases: glycan notation: IUPAC condensed, linker removed
[1] = molecular target: Neu5Ac(a2-3)[Neu5Ac(a2-6)]GalNAc
Outline: (§1)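 Glycan array binding is given as a within-array Z-score, which can be read as non-binding when negative. The arrays, 3228 of them, came from the Consortium for Functional Glycomics database and were retained only where the protein sequence was available. Z-scores were averaged across arrays of the same protein sequence at different concentrations or buffers and across linkers.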

Neu5Ac(a2-6)Gal = molecular target: Neu5Ac(a2-6)Gal
Outline: as §1

Neu5Ac(a2-6)Gal(b1-4)Glc = molecular target: Neu5Ac(a2-6)Gal(b1-4)Glc
Outline: as §1

[2] = molecular target: Neu5Ac(a2-6)Gal(b1-4)GlcNAc
Outline: as §1

[3] = molecular target: Neu5Ac(a2-6)Gal(b1-4)GlcNAc(b1-2)Man(a1-3)Man(b1-4)GlcNAc(b1-4)GlcNAc
Outline: as §1

[4] = molecular target: Neu5Ac(a2-6)Gal(b1-4)GlcNAc(b1-2)Man(a1-3)[Gal(b1-4)GlcNAc(b1-2)Man(a1-6)]Man(b1-4)GlcNAc(b1-4)GlcNAc
Outline: as §1

[5] = molecular target: Neu5Ac(a2-6)Gal(b1-4)GlcNAc(b1-2)Man(a1-3)[GlcNAc(b1-2)Man(a1-6)]Man(b1-4)GlcNAc(b1-4)GlcNAc
Outline: as §1

[6] = molecular target: Neu5Ac(a2-6)Gal(b1-4)GlcNAc(b1-2)Man(a1-3)[GlcNAc(b1-2)Man(b1-4)GlcNAc(b1-2)Man(a1-6)]Man(b1-4)GlcNAc(b1-4)GlcNAc
Outline: as §1

[7] = molecular target: Neu5Ac(a2-6)Gal(b1-4)GlcNAc(b1-2)Man(a1-3)[Man(a1-6)]Man(b1-4)GlcNAc(b1-4)GlcNAc
Outline: as §1

[8] = molecular target: Neu5Ac(a2-6)Gal(b1-4)GlcNAc(b1-2)Man(a1-3)[Neu5Ac(a2-6)Gal(b1-4)GlcNAc(b1-2)Man(a1-6)]Man(b1-4)GlcNAc(b1-4)GlcNAc
Outline: as §1

[9] = molecular target: Neu5Ac(a2-6)Gal(b1-4)GlcNAc(b1-2)Man(a1-6)Man(b1-4)GlcNAc(b1-4)GlcNAc
Outline: as §1

[10] = molecular target: Neu5Ac(a2-6)Gal(b1-4)GlcNAc(b1-2)Man(a1-6)[Gal(b1-4)GlcNAc(b1-2)Man(a1-3)]Man(b1-4)GlcNAc(b1-4)GlcNAc
Outline: as §1

[11] = molecular target: Neu5Ac(a2-6)Gal(b1-4)GlcNAc(b1-2)Man(a1-6)[GlcNAc(b1-2)Man(a1-3)]Man(b1-4)GlcNAc(b1-4)GlcNAc
Outline: as §1

[12] = molecular target: Neu5Ac(a2-6)Gal(b1-4)GlcNAc(b1-2)Man(a1-6)[Man(a1-3)]Man(b1-4)GlcNAc(b1-4)GlcNAc
Outline: as §1

[13] = molecular target: Neu5Ac(a2-6)Gal(b1-4)GlcNAc(b1-3)Gal(b1-3)GlcNAc
Outline: as §1

[14] = molecular target: Neu5Ac(a2-6)Gal(b1-4)GlcNAc(b1-3)Gal(b1-4)GlcNAc
Outline: as §1

[15] = molecular target: Neu5Ac(a2-6)Gal(b1-4)GlcNAc(b1-3)Gal(b1-4)GlcNAc(b1-3)Gal(b1-4)GlcNAc
Outline: as §1

[16] = molecular target: Neu5Ac(a2-6)Gal(b1-4)GlcNAc(b1-3)Gal(b1-4)[Fuc(a1-3)]GlcNAc(b1-3)Gal(b1-4)[Fuc(a1-3)]GlcNAc
Outline: as §1

[17] = molecular target: Neu5Ac(a2-6)Gal(b1-4)GlcNAc(b1-3)GalNAc
Outline: as §1

[18] = molecular target: Neu5Ac(a2-6)Gal(b1-4)GlcNAc6S
Outline: as §1

Neu5Ac(a2-6)GalNAc = molecular target: Neu5Ac(a2-6)GalNAc
Outline: as §1

[19] = molecular target: Neu5Ac(a2-6)GalNAc(b1-4)GlcNAc
Outline: as §1

[20] = molecular target: Neu5Ac(a2-6)GlcNAc(b1-4)GlcNAc
Outline: as §1

[21] = molecular target: Neu5Ac(a2-6)GlcNAc(b1-4)GlcNAc(b1-4)GlcNAc
Outline: as §1

Neu5Ac(a2-8)Neu5Ac = molecular target: Neu5Ac(a2-8)Neu5Ac
Outline: as §1

[22] = molecular target: Neu5Ac(a2-8)Neu5Ac(a2-3)Gal(b1-4)Glc
Outline: as §1

[23] = molecular target: Neu5Ac(a2-8)Neu5Ac(a2-3)[GalNAc(b1-4)]Gal(b1-4)Glc
Outline: as §1

[24] = molecular target: Neu5Ac(a2-8)Neu5Ac(a2-8)Neu5Ac
Outline: as §1

[25] = molecular target: Neu5Ac(a2-8)Neu5Ac(a2-8)Neu5Ac(a2-3)Gal(b1-4)Glc
Outline: as §1

[26] = molecular target: Neu5Ac(a2-8)Neu5Ac(a2-8)Neu5Ac(a2-3)[GalNAc(b1-4)]Gal(b1-4)Glc
Outline: as §1

[27] = molecular target: Neu5Ac(a2-8)Neu5Ac(a2-8)Neu5Ac(a2-8)Neu5Ac(a2-3)[GalNAc(b1-4)]Gal(b1-4)Glc
Outline: as §1

[28] = molecular target: Neu5Ac(b2-6)Gal(b1-4)GlcNAc
Outline: as §1

Neu5Ac(b2-6)GalNAc = molecular target: Neu5Ac(b2-6)GalNAc
Outline: as §1

[29] = molecular target: Neu5Ac9Ac(a2-3)Gal(b1-3)GlcNAc
Outline: as §1

[30] = molecular target: Neu5Ac9Ac(a2-3)Gal(b1-4)GlcNAc
Outline: as §1

[31] = molecular target: Neu5Ac9Ac(a2-6)Gal(b1-4)GlcNAc
Outline: as §1

[32] = molecular target: Neu5Gc(a2-3)Gal(b1-3)GlcNAc
Outline: as §1

[33] = molecular target: Neu5Gc(a2-3)Gal(b1-3)[Fuc(a1-4)]GlcNAc
Outline: as §1

Neu5Gc(a2-3)Gal(b1-4)Glc = molecular target: Neu5Gc(a2-3)Gal(b1-4)Glc
Outline: as §1

[34] = molecular target: Neu5Gc(a2-3)Gal(b1-4)GlcNAc
Outline: as §1

[35] = molecular target: Neu5Gc(a2-3)Gal(b1-4)[Fuc(a1-3)]GlcNAc
Outline: as §1

[36] = molecular target: Neu5Gc(a2-6)Gal(b1-4)GlcNAc
Outline: as §1

Neu5Gc(a2-6)GalNAc = molecular target: Neu5Gc(a2-6)GalNAc
Outline: as §1

[37] = molecular target: Neu5Gc(b2-6)Gal(b1-4)GlcNAc
Outline: as §1

B1: DGL (Dioclea grandiflora), P08902 (protein)
chain: ADTIVAVELDSYPNTDIGDPNYPHIGIDIKSIRSKSTARWNMQTGKVGTVHISYNSVAKRLSAVVSYSGSSSTTVSYDVDLNNVLPEWVRVGLSATTGLYKETNTILSWSFTSKLKTNSIADENSLHFSFHKFSQNPKDLILQGDAFTDSDGNLELTKVSSSGDPQGNSVGRALFYAPVHIWESSAVVASFDATFTFLIKSPDREPADGITFFIANTDTSIPSGSGGRLLGLFPDAN
Which results are given for B1?
glycan array binding signal (z-score) [1]: -0.166; glycan array binding signal (z-score) (Neu5Ac(a2-6)Gal): -0.171; glycan array binding signal (z-score) (Neu5Ac(a2-6)Gal(b1-4)Glc): -0.175; glycan array binding signal (z-score) [2]: -0.176; glycan array binding signal (z-score) [3]: -0.179; glycan array binding signal (z-score) [4]: -0.178; glycan array binding signal (z-score) [5]: 0.053; glycan array binding signal (z-score) [6]: -0.172; glycan array binding signal (z-score) [7]: -0.131; glycan array binding signal (z-score) [8]: -0.173; glycan array binding signal (z-score) [9]: -0.172; glycan array binding signal (z-score) [10]: -0.182; glycan array binding signal (z-score) [11]: -0.165; glycan array binding signal (z-score) [12]: -0.159; glycan array binding signal (z-score) [13]: -0.173; glycan array binding signal (z-score) [14]: -0.178; glycan array binding signal (z-score) [15]: -0.178; glycan array binding signal (z-score) [16]: -0.171; glycan array binding signal (z-score) [17]: -0.167; glycan array binding signal (z-score) [18]: -0.179; glycan array binding signal (z-score) (Neu5Ac(a2-6)GalNAc): -0.174; glycan array binding signal (z-score) [19]: -0.185; glycan array binding signal (z-score) [20]: -0.172; glycan array binding signal (z-score) [21]: -0.177; glycan array binding signal (z-score) (Neu5Ac(a2-8)Neu5Ac): -0.182; glycan array binding signal (z-score) [22]: -0.178; glycan array binding signal (z-score) [23]: -0.178; glycan array binding signal (z-score) [24]: -0.175; glycan array binding signal (z-score) [25]: -0.176; glycan array binding signal (z-score) [26]: -0.177; glycan array binding signal (z-score) [27]: -0.176; glycan array binding signal (z-score) [28]: -0.177; glycan array binding signal (z-score) (Neu5Ac(b2-6)GalNAc): -0.171; glycan array binding signal (z-score) [29]: -0.172; glycan array binding signal (z-score) [30]: -0.171; glycan array binding signal (z-score) [31]: -0.171; glycan array binding signal (z-score) [32]: -0.177; glycan array binding signal (z-score) [33]: -0.179; glycan array binding signal (z-score) (Neu5Gc(a2-3)Gal(b1-4)Glc): -0.17; glycan array binding signal (z-score) [34]: -0.178; glycan array binding signal (z-score) [35]: -0.181; glycan array binding signal (z-score) [36]: -0.174; glycan array binding signal (z-score) (Neu5Gc(a2-6)GalNAc): -0.17; glycan array binding signal (z-score) [37]: -0.172
